Measurements published in patent US6184374A, “Targeted cytotoxic anthracycline analogs” (priority 1998, dated 2001).
Read-outs that look alike come from different tables or passages of the source. Part of at least one peptide drawing is inferred or uncertain, most often the ends. Where a SMILES comes first, the peptide text is derived from it. The star is where a group is joined. Glutaryl(5-(14-O-Dox)) = COc1cccc2c1C(=O)c1c(O)c3c(c(O)c1C2=O)C[C@@](O)(C(=O)COC(=O)CCCC(=O)*)C[C@@H]3O[C@H]1C[C@H](N)[C@H](O)[C@H](C)O1; X1 = CC(C)C[C@@H](CN[C@@H](CC(C)C)C(N)=O)N*

How the values were obtained:
[1] = tested on: CFPAC-1 Human Pancreatic Cancer Cell; assay: Growth of CFPAC-1 cells in vitro (crystal violet T/C); format: cell-based
Text: (§1) For the evaluation of the activity of the analogs, a colorimetric cytotoxicity assay in microtitration plates was used based on quantification of biomass by staining cells with crystal violet, which correlates very well with determination of cell numbers. (Reile et al.; Anal. Biochem. 187, 262-267, 1990; Bernhardt G. et al, J. Cancer Res. Clin. Oncol. (1992), 118, 35-43; Spruss Th. et al, J. Cancer Res. Clin. Oncol 117, 435-443, 1991; Gillies, R. J., Anal. Biochem. 159, 109-113, 1986; Kueng, W. et al.; Anal. Biochem., 182 16-19, 1989.)
(§2) One to two days after seeding cells in 96-well plates the culture medium is exchanged with fresh medium containing the compounds to be tested and fresh medium only for the control cultures. After varying time of incubation, cells are fixed with glutaric dialdehyde and stored under […] at 4° C. until the end of the experiment. Cells are stained with crystal violet and bound stain is extracted with 70% aqueous EtOH. Optical density is measured with EIA Reader (Bio-Tek Instruments) or Biomek 1000 (Beckman) at 590 nm or 600 nm, respectively. Each data point represents the mean value of eight culture wells. T/C values are calculated as T/C=(T-C0)/(C-C0) where T=optical density of treated cultures, C=optical density of control (untreated) cultures, C0 =optical density of cultures at the start of incubation (t=0).

[2] = tested on: estrogen independent MXT mouse mammary cancers; assay: Single treatment of estrogen independent MXT mouse mammary cancers (KS-55); format: in vivo
Procedure: In order to determine the maximum tolerated doses and compare the effects, MXT (3.2) ovex tumor pieces (1 mm^3) were implanted s.c. in female B6 D2 F1 mice. One day after transplantation the mice were randomly divided into groups of five animals and they were treated with a single injection i.p. The groups and doses are shown in the Table 25-1. […] The compounds were dissolved in 0.1% TFA (pH: 2.0). Tumor volume was measured on days 10, 13, 17, and 20.

LH-responses = assay: Hormonal activity of LH-RH analogs (LH-responses rel. to LH-RH); format: cell-based; conditions: relative to LH-RH = 1
[3] = tested on: MCF-7 human mammary carcinoma cell line; format: cell-based; conditions: Table 18-1
Text: (§3) MXT estrogen-independen mouse mammary carcinoma cell line was obtained from Dr. Gunter Berndhart, University of Regensburg, Germany. All the other cell lines used in the determination of the antiproliferative activity of the compounds of this invention were obtained from the American Type Culture Collection (ATCC).
as §1, §2
Cells were incubated in IMEM media containing 5% Hl:DCC-FBS (heat inactivated dextran coated charcoal treated fetal bovine serum) on 96 well plates. Relative cell number in treated and control plates was determined by the crystal violet staining method and was expressed as T/C values where T/C=T-C0 /C-C0×100 [T=absorbance of treated cultures, C= absorbance of control cultures, C0 =absorbance of cultures at the start of incubation (t=0). The measured absorbance is proportionate to the cell number.]

[4] = tested on: MXT estrogen independent mouse mammary carcinoma cell line; assay: In vitro cytotoxic activity, crystal violet colorimetric assay on MXT; format: cell-based
Text: as §3, §1, §2

[5] = tested on: MIIA PaCa-2 Human Pancreatic Cancer Cell Line; assay: Growth of MIIA PaCa-2 cells in vitro (crystal violet T/C); format: cell-based
Text: as §1, §2
Cells were incubated in RPMI 1640 media containing 10% fetal bovine serum on 96 well plates. [drawing 8]

[6] = tested on: growth hormone release from superfused rat pituitary cells; assay: Inhibition of hGH-RH(1-29)NH2 induced GH release, rat pituitary superfusion system; format: cell-based
Procedure: Accordingly, this method was used to compare the cytotoxic somatostatin analogs of the present invention to their parent carrier molecules with respect to their hormonal activities.
In rat pituitary superfusion system, the somatostatin analogs were administered for 3 min at 1 nM dose simultaneously with 1 nM hGH-RH(1-29)NH2. The infusion of the somatostatin analogs was maintained for another 6 min. GH responses to 3 min administration of 1 nM hGH-RH(1-29)NH2 were determined during the perfusion of the somatostatin analogs (0 min) and 30, 60 and 90 min after the administration stopped.

[7] = single i.p. injection 750 nmol/20 g
[8] = single i.p. injection 850 nmol/20 g
[9] = single i.p. injection 680 nmol/20 g
[10] = single i.p. injection 710 nmol/20 g
[11] = single i.p. injection 760 nmol/20 g

CC(C)C[C@@H](CN[C@@H](CC(C)C)C(N)=O)NC(=O)[C@H](Cc1c[nH]cn1)NC(=O)CNC(=O)[C@@H](NC(=O)[C@H](C)NC(=O)[C@H](Cc1c[nH]c2ccccc12)NC(=O)[C@@H](N)CCC(N)=O)C(C)C [Compound B-94, Gln-Trp-Ala-Val-Gly-His-Leu.PSI.(CH2 --NH)Leu-NH2] (H-QWAVGH-X1)
T/C VALUE ([1]; 3 × 10^-7 M, incubation 66 h): 104
T/C VALUE ([1]; 3 × 10^-7 M, incubation 95 h): 99
T/C VALUE ([1]; 3 × 10^-7 M, incubation 137 h): 100
T/C VALUE ([1]; 3 × 10^-8 M, incubation 66 h): 99
T/C VALUE ([1]; 3 × 10^-8 M, incubation 95 h): 97
T/C VALUE ([1]; 3 × 10^-8 M, incubation 137 h): 98
T/C VALUE ([1]; 10^-6 M, incubation 66 h): 100
T/C VALUE ([1]; 10^-6 M, incubation 95 h): 96
T/C VALUE ([1]; 10^-6 M, incubation 137 h): 96
T/C VALUE ([1]; 10^-7 M, incubation 66 h): 106
T/C VALUE ([1]; 10^-7 M, incubation 95 h): 99
T/C VALUE ([1]; 10^-7 M, incubation 137 h): 98

COc1cccc2c1C(=O)c1c(O)c3c(c(O)c1C2=O)C[C@@](O)(C(=O)CO)C[C@@H]3O[C@H]1C[C@H](NC(=O)CCCC(=O)NCCCC[C@@H](NC(=O)[C@H](Cc2ccc(O)cc2)NC(=O)[C@H](CO)NC(=O)[C@H](Cc2c[nH]c3ccccc23)NC(=O)[C@H](Cc2c[nH]cn2)NC(=O)[C@@H]2CCC(=O)N2)C(=O)N[C@@H](CC(C)C)C(=O)N[C@@H](CCCNC(=N)N)C(=O)N2CCC[C@H]2C(=O)NCC(N)=O)[C@H](O)[C@H](C)O1 [Compound T-107]
Inhibiting the growth of this tumor ([2]; dose of 850 nmol/20 g mouse): completely ineffective
Average survival [2, 7]: 21.8 days
Number of tumorous mice/number of surviving mice Day 10 [2, 7]: 5/5
Number of tumorous mice/number of surviving mice Day 13 [2, 7]: 5/5
Number of tumorous mice/number of surviving mice Day 17 [2, 7]: 5/5
Number of tumorous mice/number of surviving mice Day 20 [2, 7]: 4/4
Average survival [2, 8]: 21.6 days
Number of tumorous mice/number of surviving mice Day 10 [2, 8]: 5/5
Number of tumorous mice/number of surviving mice Day 13 [2, 8]: 5/5
Number of tumorous mice/number of surviving mice Day 17 [2, 8]: 5/5
Number of tumorous mice/number of surviving mice Day 20 [2, 8]: 4/4

COc1cccc2c1C(=O)c1c(O)c3c(c(O)c1C2=O)C[C@@](O)(C(=O)COC(=O)CCCC(=O)N[C@@H](CCC(N)=O)C(=O)N[C@@H](Cc1c[nH]c2ccccc12)C(=O)N[C@@H](C)C(=O)N[C@H](C(=O)NCC(=O)N[C@@H](Cc1c[nH]cn1)C(=O)N[C@H](CN[C@@H](CC(C)C)C(N)=O)CC(C)C)C(C)C)C[C@@H]3O[C@H]1C[C@H](N)[C@H](O)[C@H](C)O1 [Q1^14 gB, DOX^14 -O-glt-Gln-Trp-Ala-Val-Gly-His-Leu.PSI.(CH2 --NH)Leu-NH2] ({Glutaryl(5-(14-O-Dox))}-QWAVGH-X1)
T/C VALUE ([1]; 3 × 10^-7 M, incubation 66 h): 44
T/C VALUE ([1]; 3 × 10^-7 M, incubation 95 h): 28
T/C VALUE ([1]; 3 × 10^-7 M, incubation 137 h): 19
T/C VALUE ([1]; 3 × 10^-8 M, incubation 66 h): 95
T/C VALUE ([1]; 3 × 10^-8 M, incubation 95 h): 95
T/C VALUE ([1]; 3 × 10^-8 M, incubation 137 h): 94
T/C VALUE ([1]; 10^-6 M, incubation 66 h): 9
T/C VALUE ([1]; 10^-6 M, incubation 95 h): 4
T/C VALUE ([1]; 10^-6 M, incubation 137 h): 0
T/C VALUE ([1]; 10^-7 M, incubation 66 h): 81
T/C VALUE ([1]; 10^-7 M, incubation 95 h): 57
T/C VALUE ([1]; 10^-7 M, incubation 137 h): 28

COc1cccc2c1C(=O)c1c(O)c3c(c(O)c1C2=O)C[C@@](O)(C(=O)COC(=O)CCCC(=O)NCCCC[C@@H](NC(=O)[C@H](Cc1ccc(O)cc1)NC(=O)[C@H](CO)NC(=O)[C@H](Cc1c[nH]c2ccccc12)NC(=O)[C@H](Cc1c[nH]cn1)NC(=O)[C@@H]1CCC(=O)N1)C(=O)N[C@@H](CC(C)C)C(=O)N[C@@H](CCCNC(=N)N)C(=O)N1CCC[C@H]1C(=O)NCC(N)=O)C[C@@H]3O[C@H]1C[C@H](N)[C@H](O)[C@H](C)O1 [Q1^14 gL, [D-Lys^6 (DOX^14 -O-glt)]LH-RH]
Hormonal activity (LH-responses rel. to LH-RH = 1) (LH-responses): 15
T/C Value on MCF-7 Cell Line ([3]; 3 × 10^-8 M, 70 hr): 89
T/C Value on MCF-7 Cell Line ([3]; 3 × 10^-8 M, 120 hr): 55
T/C Value on MCF-7 Cell Line ([3]; 10^-7 M, 70 hr): 63
T/C Value on MCF-7 Cell Line ([3]; 10^-7 M, 120 hr): 28
T/C Value on MCF-7 Cell Line ([3]; 10^-8 M, 70 hr): 111
T/C Value on MCF-7 Cell Line ([3]; 10^-8 M, 120 hr): 78
T/C value on MXT cell line ([4]; 3 × 10^-8 M, 26 hr): 91
T/C value on MXT cell line ([4]; 3 × 10^-8 M, 50 hr): 59
T/C value on MXT cell line ([4]; 10^-7 M, 26 hr): 73
T/C value on MXT cell line ([4]; 10^-7 M, 50 hr): 50
T/C value on MXT cell line ([4]; 10^-8 M, 26 hr): 87
T/C value on MXT cell line ([4]; 10^-8 M, 50 hr): 71
Suppression of tumor growth ([2]; dose of 650 nmol/20 g mouse (as printed in text)): strong suppression of tumor growth
Number of tumorous mice/number of surviving mice Day 10 [2, 9]: 1/4
Number of tumorous mice/number of surviving mice Day 13 [2, 9]: 2/4
Number of tumorous mice/number of surviving mice Day 17 [2, 9]: 2/4
Number of tumorous mice/number of surviving mice Day 20 [2, 9]: 3/4
Average survival ([2]; single i.p. injection 680 nmol/20 g, all mice): 28.6 ± 69 days
Average survival ([2]; single i.p. injection 680 nmol/20 g, one mouse which died accidentally on day 2 left out): 35.3 days
Number of tumorous mice/number of surviving mice Day 10 [2, 10]: 2/4
Number of tumorous mice/number of surviving mice Day 13 [2, 10]: 3/4
Number of tumorous mice/number of surviving mice Day 17 [2, 10]: 3/4
Number of tumorous mice/number of surviving mice Day 20 [2, 10]: 3/4
Average survival ([2]; single i.p. injection 710 nmol/20 g, all mice): 26.0 ± 66 days
Average survival ([2]; single i.p. injection 710 nmol/20 g, one mouse which died accidentally on day 2 left out): 32.0 days
Number of tumorous mice/number of surviving mice Day 10 [2, 11]: 3/5
Number of tumorous mice/number of surviving mice Day 13 [2, 11]: 4/5
Number of tumorous mice/number of surviving mice Day 17 [2, 11]: 4/5

COc1cccc2c1C(=O)c1c(O)c3c(c(O)c1C2=O)C[C@@](O)(C(=O)COC(=O)CCCC(=O)N[C@H](Cc1ccccc1)C(=O)N[C@H]1CSSC[C@@H](C(=O)N[C@H](C(N)=O)[C@@H](C)O)NC(=O)[C@H](C(C)C)NC(=O)[C@H](CCCCN)NC(=O)[C@@H](Cc2c[nH]c4ccccc24)NC(=O)[C@H](Cc2ccc(O)cc2)NC1=O)C[C@@H]3O[C@H]1C[C@H](N)[C@H](O)[C@H](C)O1 [Q1^14 gS^121]
T/C VALUE ([5]; 10^-6 M, incubation 28 h): 35
T/C VALUE ([5]; 10^-6 M, incubation 76 h): -4
T/C VALUE ([5]; 10^-7 M, incubation 28 h): 82
T/C VALUE ([5]; 10^-7 M, incubation 76 h): 10
T/C VALUE ([5]; 10^-8 M, incubation 28 h): 93
T/C VALUE ([5]; 10^-8 M, incubation 76 h): 97
GH release induced by 3 min administration of 1 nM hGH-RH(1-29)NH2 ([6]; 0 min (during perfusion of 1 nM somatostatin analog), percentage of GH release before analog): 8.8%
GH release induced by 3 min administration of 1 nM hGH-RH(1-29)NH2 ([6]; 30 min after infusion of 1 nM somatostatin analog): 58.5%
GH release induced by 3 min administration of 1 nM hGH-RH(1-29)NH2 ([6]; 60 min after infusion of 1 nM somatostatin analog): 54.3%
GH release induced by 3 min administration of 1 nM hGH-RH(1-29)NH2 ([6]; 90 min after infusion of 1 nM somatostatin analog): 67.7%
